# Source: the supplement of paper PMC12217912
# The list shows a part of the results. The full chains were built here from the parent and the listed change. Inactive controls read about 0.05.
# B1: TEV protease; numbered along this chain (parent)
# chain: MGESLFKGPRDYNPISSSICHLTNESDGHTTSLYGIGFGPFIITNKHLFRRNNGTLVVQSLHGVFKVKDTTTLQQHLVDGRDMIIIRMPKDFPPFPQKLKFREPQREERICLVTTNFQTKSMSSMVSDTSCTFPSGDGIFWKHWIQTKDGQCGSPLVSTRDGFIVGIHSASNFTNTNNYFTSVPKNFMELLTNQEAQQWVSGWRLNADSVLWGGHKVFMVKPEEPFQPVKEATQL
# Variants of: B1
# Assay: raw area under fraction-flipped curve 0-4 h after induction (AUC4h, not background-subtracted), DNA-recorder readout of cleavage of the substrate (dimensionless); higher = more cleavage of the substrate by the protease variant
# Conditions: temperature: 34 °C; time window: 0-4 h after rhamnose induction
# Description: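 In vivo DNA recorder in E. coli TOP10(DE3) ΔrhaA at 34 °C. Each TEVp single-site mutant (parent TEVp 0) is paired with a single-site variant of the 7-mer TEVs (canonical ENLYFQ|S). The substrate sits between flexible linkers in a Bxb1-sfGFP-TEVs-SsrA fusion, so cleavage stabilises Bxb1 and speeds flipping of a recombination array, read by NGS. The value is the raw area under the fraction-flipped curve over 0-4 h after rhamnose induction (AUC4h), with ≥20 reads per time point. It is not background-subtracted; inactive controls average about 0.047.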
# 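Note: Bxb1 expression induced with 0.2% (w/v) L-rhamnose at OD600 near 0.5, cultures sampled hourly, flipped fraction per protease–substrate barcode pair counted by paired-end Illumina sequencing.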
Variant,area with substrate ENLYAQS,area with substrate ENLYCQS,area with substrate ENLYDQS,area with substrate ENLYEQS,area with substrate ENLYGQS,area with substrate ENLYHQS,area with substrate ENLYIQS,area with substrate ENLYKQS,area with substrate ENLYLQS,area with substrate ENLYMQS,area with substrate ENLYNQS,area with substrate ENLYPQS,area with substrate ENLYQQS,area with substrate ENLYRQS,area with substrate ENLYSQS,area with substrate ENLYTQS,area with substrate ENLYVQS,area with substrate ENLYWQS,area with substrate ENLYYQS
MGESLFKGPRDYNPISSSICHLTNESDGHTTSLYGIGFGPFIITNKHLFRRNNGTLVVQSLHGVFKVKDTTTLQQHLVDGRDMIIIRMPKDFPPFPQKLKFREPQREERICLVTTNFQTKSMSSMVSDTSCTFPSGDGIFWKHWIQTKDGQCGSPLVSTRDGFMVGIHSASNFTNTNNYFTSVPKNFMELLTNQEAQQWVSGWRLNADSVLWGGHKVFMVKPEEPFQPVKEATQL [I164M],0.0595,0.0803,0.0692,0.0619,0.059,0.0623,0.0866,0.06,0.0643,0.0608,0.0584,0.0639,0.0509,0.0547,0.0845,0.0724,0.0907,0.0666,
MGESLFKGPRDYNPISSSICHLTNESDGHTTSLYGIGFGPFIITNKHLFRRNNGTLVFQSLHGVFKVKDTTTLQQHLVDGRDMIIIRMPKDFPPFPQKLKFREPQREERICLVTTNFQTKSMSSMVSDTSCTFPSGDGIFWKHWIQTKDGQCGSPLVSTRDGFIVGIHSASNFTNTNNYFTSVPKNFMELLTNQEAQQWVSGWRLNADSVLWGGHKVFMVKPEEPFQPVKEATQL [V58F],0.0493,,0.0607,,,0.0655,0.111,0.0671,,,,0.0469,,0.0396,,0.0634,,0.0843,0.0539
MGESLFKGPRDYNPISSSICHLTNESDGHTTSLYGIGFGPFIITNKHLFRRNNGTLVVQSLHGVFKVKDTTTLQQHLVDGRDMIIIRMPKDFPPFPQKLKFREPQREERICLVTTNFQTKSMSSMVSDTSCTFPSGDGIFWKHWIQTKDGQCGSPLVSTRDGFIVGIHSASNFTNTNNYFTSVPKNFMELLTNQEAQQWVSGWRLNADSVLWGGHKVFMVKPEEPFSPVKEATQL [Q227S],0.0816,0.104,,0.0766,,0.0837,0.141,0.13,,,0.0695,0.0753,0.0448,0.065,0.0608,,0.183,0.0679,0.0085
MGESLFKGPRDYNPISSSICHLTNESDGHTTSLYGIGFGPFIITNKHLFRRNNGTLVVQSLHGVFKVKDTTTLQQHLVDGRDMIIIRMPKDFPPFPQKLKFREPQREERICLVTTNFQTKSMSSMVSDTSCTFPSGDGIFWKHWIQTKDGQCGSPLVSTRSGFIVGIHSASNFTNTNNYFTSVPKNFMELLTNQEAQQWVSGWRLNADSVLWGGHKVFMVKPEEPFQPVKEATQL [D161S],0.0504,,,0.0667,,,0.0976,,0.0685,0.0655,0.059,,,0.0571,,,,0.067,
MGESLFKGPRDYNPISSSICHLTNESDGHTTSLYGIGFGPFIITNKHLFRRNNGTLVVQSLHGVFKVKDTTTLQQHLVDGRDMIIIRMPKDFPPFPQKLKFREPQREERICLVTTNFQTKSMSSMVSDTSCTFPSGDGIFWKHWIQTKDGQCGSPLVSTRDGFIVGIHSASNFTNTNNYFTSVPKNFMELLTNQEAQQWVSGWRLNADSLLWGGHKVFMVKPEEPFQPVKEATQL [V210L],0.0681,0.0573,0.0706,0.0579,0.0483,0.0644,0.104,0.0692,,0.0848,0.0615,0.0726,0.0394,,0.0671,,,0.0795,0.0718
MGESLFKGPRDYNPISSSICHLTNESDGHTTSLYGIGFGPFIITNKHLFRRNNGTLVVQSLHGVFKVKDTTTLQQHLVDGRDMIIIRMPKDFPPFPQKLKFREPQREERICLVTTNFQTKSMSSRVSDTSCTFPSGDGIFWKHWIQTKDGQCGSPLVSTRDGFIVGIHSASNFTNTNNYFTSVPKNFMELLTNQEAQQWVSGWRLNADSVLWGGHKVFMVKPEEPFQPVKEATQL [M125R],0.0922,,0.0744,0.0736,0.0788,0.0705,0.113,0.0258,0.0839,0.0748,0.0596,0.0704,0.064,0.0551,0.0836,0.0792,0.115,0.0866,0.0681
MGESLFKGPRDYNPISSSICHLTNESDGHTTSLYGIGFGPFIITNKHLFRRNNGTLVVQSLHGVFKVKDTTTLQQHLVDGRDMIIIRMPKDFPPFPQKLKFREPQREERICLVTTNFQTKSMSSMVSDTSCTFPSGDGIFWKHWIQTKDGQCGSPSVSTRDGFIVGIHSASNFTNTNNYFTSVPKNFMELLTNQEAQQWVSGWRLNADSVLWGGHKVFMVKPEEPFQPVKEATQL [L156S],0.0611,0.0518,,0.0651,0.0609,0.0367,,,0.0634,0.0603,0.0622,,0.0483,0.0525,,,0.072,,0.0728
MGESLFKGPRDYNPISSSICHLTNESDGHTTSLYGIGFGPFIITNKHLFRRNNGTLVVQSLHGVFKVKDTTTLQQHLVDGRDMIIIRMPKDFPPFPQKLKFREPQREERICLVTTNFQTKSMSSMVSDTSCTFPSGDGIFWKHWIQTKDGQCGSPLVSTRDGFIVGIHSASNFTNTNNYFTSVPKNFMELLTNQEAQQWVSGWRLNADSVLWGGHKVFMVKEEEPFQPVKEATQL [P222E],0.0854,0.0874,,0.0661,0.0702,0.0689,,0.0623,,,0.0616,0.0725,,0.0587,,,0.113,0.081,
MGESLFKGPRDYNPISSSICHLTNEDDGHTTSLYGIGFGPFIITNKHLFRRNNGTLVVQSLHGVFKVKDTTTLQQHLVDGRDMIIIRMPKDFPPFPQKLKFREPQREERICLVTTNFQTKSMSSMVSDTSCTFPSGDGIFWKHWIQTKDGQCGSPLVSTRDGFIVGIHSASNFTNTNNYFTSVPKNFMELLTNQEAQQWVSGWRLNADSVLWGGHKVFMVKPEEPFQPVKEATQL [S26D],0.07,0.0787,0.0721,0.0628,0.0588,0.0678,0.101,0.0693,0.0793,0.0606,,,0.063,0.0889,0.0547,0.0672,0.0934,0.0925,0.0728
MGESLFKGPRNYNPISSSICHLTNESDGHTTSLYGIGFGPFIITNKHLFRRNNGTLVVQSLHGVFKVKDTTTLQQHLVDGRDMIIIRMPKDFPPFPQKLKFREPQREERICLVTTNFQTKSMSSMVSDTSCTFPSGDGIFWKHWIQTKDGQCGSPLVSTRDGFIVGIHSASNFTNTNNYFTSVPKNFMELLTNQEAQQWVSGWRLNADSVLWGGHKVFMVKPEEPFQPVKEATQL [D11N],0.0776,,0.0655,0.0661,0.0626,,0.127,0.0617,0.0684,0.0809,0.0658,0.0627,0.0662,0.049,0.0612,,,0.102,0.0748
MGESLFKGPRDYNPISSSICHLTNESDGHTTSLYGIGFGPFIITNKHLFRRNNGTLVVQSLHGVFKVKDTTTLQQHLVDGRDMIIIRMPKDFPPFPQKLKFREPQREERICLVTTNFMTKSMSSMVSDTSCTFPSGDGIFWKHWIQTKDGQCGSPLVSTRDGFIVGIHSASNFTNTNNYFTSVPKNFMELLTNQEAQQWVSGWRLNADSVLWGGHKVFMVKPEEPFQPVKEATQL [Q118M],0.0858,0.0686,0.0443,0.0721,0.0755,0.0661,,,,0.0731,,0.0741,,,0.0636,,,0.085,0.0563
MGESLFKGPRDYNPISSSICHLTNESDGHTTSLYGIGFGPFIITNKHLFRRNNGTLVVQSLHGVFKVKDTTTLQQHLVDGRDMIIIRMPKDFPPFPQKLKFREPQREERICLVTTNFQTKSMSSMVSDTSCTFPSGDVIFWKHWIQTKDGQCGSPLVSTRDGFIVGIHSASNFTNTNNYFTSVPKNFMELLTNQEAQQWVSGWRLNADSVLWGGHKVFMVKPEEPFQPVKEATQL [G138V],0.0914,,0.0606,,0.0631,0.0556,0.0968,,0.0901,,,0.0641,0.0586,0.0653,,,0.11,,
MGESLFKGPRDYNPISSSICHLTNESDGHTTSLYGIGFGPFIITNKHLFRRNNGTLVVQSLHGVFKVKDTTTLQQHLVDGRDMIIIRMPKDFPPFPQKLKFREPQREERICLVTTNFQTKSMSSMVSDTSCTFPSGDGIFWKHWIQTKDGQCGSPLVSTRDGFIVGIHSASNFTNTNNYFTSVPKNFMELMTNQEAQQWVSGWRLNADSVLWGGHKVFMVKPEEPFQPVKEATQL [L191M],0.0697,0.0713,0.0613,0.0621,0.0615,0.0672,0.133,0.07,0.0817,0.0814,0.0663,0.0678,,0.0579,0.0724,0.119,0.107,,
MGESLFKGPRDYNPISSSICHLTNVSDGHTTSLYGIGFGPFIITNKHLFRRNNGTLVVQSLHGVFKVKDTTTLQQHLVDGRDMIIIRMPKDFPPFPQKLKFREPQREERICLVTTNFQTKSMSSMVSDTSCTFPSGDGIFWKHWIQTKDGQCGSPLVSTRDGFIVGIHSASNFTNTNNYFTSVPKNFMELLTNQEAQQWVSGWRLNADSVLWGGHKVFMVKPEEPFQPVKEATQL [E25V],0.0808,,0.0555,0.0693,0.0741,0.074,0.092,0.0582,0.0652,0.0768,0.0633,0.0727,0.0608,,0.0764,0.0655,0.106,0.0817,0.0759
MGESLFKGPRDYNPISSSICHLTNESDGHTTSLYGIGFGPFIITNKHLFRRNNGTLVVQSLHGVFKVKDTTTLQQHLVDGRDMIIIRMPKDFPPFPQKLKFREPQREERICLVTTNFQTKSMSSMVSDTSCTFPSGDGIFWKHWIQTKDGQCGSPLVSTRDGFIVGIHSASNFTNTNNYFTSVPKNFMELLTNQEAQQWVSGWRLNADSVLWGGHKVFYVKPEEPFQPVKEATQL [M219Y],0.0783,,,0.0639,,0.0517,,,,0.122,,,0.082,0.0634,0.0646,,,,0.0756
MGESLFKGPRDYNPISSSICHLTNESDGHTTSLYGIGFGPFIITNKHLFERNNGTLVVQSLHGVFKVKDTTTLQQHLVDGRDMIIIRMPKDFPPFPQKLKFREPQREERICLVTTNFQTKSMSSMVSDTSCTFPSGDGIFWKHWIQTKDGQCGSPLVSTRDGFIVGIHSASNFTNTNNYFTSVPKNFMELLTNQEAQQWVSGWRLNADSVLWGGHKVFMVKPEEPFQPVKEATQL [R50E],0.0744,0.0673,0.0643,0.0583,0.0761,0.0678,0.0628,0.0799,,0.0608,0.0665,0.0699,0.0643,0.0497,,0.0627,,0.0667,0.0582
MGESLFKGPRDYNPHSSSICHLTNESDGHTTSLYGIGFGPFIITNKHLFRRNNGTLVVQSLHGVFKVKDTTTLQQHLVDGRDMIIIRMPKDFPPFPQKLKFREPQREERICLVTTNFQTKSMSSMVSDTSCTFPSGDGIFWKHWIQTKDGQCGSPLVSTRDGFIVGIHSASNFTNTNNYFTSVPKNFMELLTNQEAQQWVSGWRLNADSVLWGGHKVFMVKPEEPFQPVKEATQL [I15H],0.0764,,0.051,0.0698,,0.0767,0.139,0.0575,,,0.0726,0.0538,0.057,0.07,0.0635,,0.13,0.0824,0.0624
MGESLFKGPRDYNPISSSICHLTNESDGHTTSLYGIGFGPFIITNKHLFRRNNGTLVVQMLHGVFKVKDTTTLQQHLVDGRDMIIIRMPKDFPPFPQKLKFREPQREERICLVTTNFQTKSMSSMVSDTSCTFPSGDGIFWKHWIQTKDGQCGSPLVSTRDGFIVGIHSASNFTNTNNYFTSVPKNFMELLTNQEAQQWVSGWRLNADSVLWGGHKVFMVKPEEPFQPVKEATQL [S60M],0.0714,0.0731,,0.0549,0.0635,0.076,0.126,0.0709,,0.0872,0.0701,0.0722,,0.0515,0.0738,0.0947,0.114,0.0639,
